Data taken from US20240247080A1, “GLP1/GIP/NPY2 RECEPTOR TRIPLE AGONISTS” (Boehringer Ingelheim International GmbH, priority 2022, published 2024).
Read-outs that look alike come from different tables or passages of the source. At least one compound was matched to its structure with a doubt left. Starred links: 1 amine or outer side, 2 acyl side, 3 side chain; linkers in the order of their positions; H or OH if unused. Non-standard residues stand in square brackets, D forms with d. Groups on a side chain read outwards from the residue. No end group written: not given here. *: point of attachment. C20 diacid = O=C(O)CCCCCCCCCCCCCCCCCCC(=O)*; C18 diacid = O=C(O)CCCCCCCCCCCCCCCCC(=O)*; γGlu = O=C(O)[C@H](CCC(=O)[*:2])N[*:1]; εLys = N[C@@H](CCCCN[*:1])C(=O)[*:2]; Aib = CC(C)(N)C(=O)O

Tests used:
Assay type in all cases: cell-based
hGIPR = target: T1, hGIPR (Homo sapiens, UniProt P48546); assay: hGIPR CreLuc reporter gene assay in 0.5% and 100% plasma
T1 construct: expressed in transfected cells; host or cells: CHO cells carrying a CRE-luciferase reporter gene
T1 sequence (P48546 22-466): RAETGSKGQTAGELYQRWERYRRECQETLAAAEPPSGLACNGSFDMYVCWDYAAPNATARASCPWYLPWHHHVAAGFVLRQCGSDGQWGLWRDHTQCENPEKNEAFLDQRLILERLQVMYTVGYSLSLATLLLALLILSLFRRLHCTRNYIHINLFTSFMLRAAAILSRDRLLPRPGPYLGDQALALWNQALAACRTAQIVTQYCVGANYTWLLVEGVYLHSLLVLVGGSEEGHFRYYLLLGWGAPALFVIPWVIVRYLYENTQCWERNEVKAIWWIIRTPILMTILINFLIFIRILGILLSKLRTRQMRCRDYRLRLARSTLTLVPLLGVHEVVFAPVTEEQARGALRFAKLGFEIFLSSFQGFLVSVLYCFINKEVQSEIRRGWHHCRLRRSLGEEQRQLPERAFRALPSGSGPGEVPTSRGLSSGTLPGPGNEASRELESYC
Description: (§1) Example 1: hGLPR/hGIPR/hNPY2R CreLuc Assay in 0.5% and 100% Plasma
(§2) CHO and HEK-293 recombinant cell lines express a luciferase reporter gene under control of the cAMP responsive element (CRE). As a second recombinant protein the GLP-1 and NPY2 receptors were expressed in the reporter gene HEK cells, and the GIP receptor was expressed in the reporter gene CHO cells, respectively. Stimulation of these recombinant cells with an agonist leads to an increase of intracellular cAMP levels. In the presence of cAMP, the transcription factor CRE binding protein (CREB) binds to the CRE and to the CREB binding protein (CBP), which leads to transcription of the luciferase reporter gene. Peptides upon serial-dilution in 100% DMSO were transferred into 384-well assay plates with 5 μl pre-dispensed assay buffer (1×HBSS, 20 mM HEPES, pH7.4 supplemented with 0.5% human plasma) using acoustic dispensing on a Labcyte ECHO. Cryo-preserved transgenic reporter gene cells were thawed in assay buffer. 20 μl (10.000 cells/well) were added to the plate with the peptides and incubated for 4 hours at 37° C. in a humidified incubator. Following incubation, assay plates are equilibrated to room temperature, followed by addition of 25 μl of Bright-GIo™ Luciferase reagent, incubation at room temperature for 10 minutes and analysis of luminescence (Envision Reader). Concentration response evaluation of compounds was performed with 8 concentrations of peptides (covering four decades). EC50 values were calculated by non-linear regression using sigmoid concentration-response with variable slope. The same assays were run in the presence of 100% plasma with no additional buffer constituents.

hGLP1R = target: T2, hGLP1R (Homo sapiens, UniProt P43220); assay: hGLP1R CreLuc reporter gene assay in 0.5% and 100% plasma; settings: 0.5% human plasma, read-out: hGLP1R 0.5% hP
T2 construct: expressed in transfected cells; host or cells: HEK-293 cells carrying a CRE-luciferase reporter gene
Description: as §1, §2

hNPY2R = target: T3, hNPY2R (Homo sapiens, UniProt P49146); assay: hNPY2R CreLuc reporter gene assay in 0.5% and 100% plasma
T3 construct: expressed in transfected cells; host or cells: HEK-293 cells carrying a CRE-luciferase reporter gene
T3 sequence (P49146 1-381): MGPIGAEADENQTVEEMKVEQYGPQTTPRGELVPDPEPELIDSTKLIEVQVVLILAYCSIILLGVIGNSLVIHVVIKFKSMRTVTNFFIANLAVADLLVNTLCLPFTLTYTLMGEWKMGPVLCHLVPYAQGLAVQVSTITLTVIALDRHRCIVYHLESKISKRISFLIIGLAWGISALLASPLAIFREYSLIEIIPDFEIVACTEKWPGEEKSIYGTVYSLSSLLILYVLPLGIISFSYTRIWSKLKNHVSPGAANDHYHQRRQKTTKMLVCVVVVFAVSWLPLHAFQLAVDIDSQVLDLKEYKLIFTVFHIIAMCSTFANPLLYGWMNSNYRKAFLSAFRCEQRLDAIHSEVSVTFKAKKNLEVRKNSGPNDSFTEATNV
Description: as §1, §2

[1] = 0.5% human plasma, read-out: hGIPR 0.5% hP
[2] = 100% human plasma, read-out: hGIPR 100% hP
[3] = 0.5% human plasma, read-out: hNPY2R 0.5% hP
[4] = 100% human plasma, read-out: hNPY2R 100% hP

T2 sequence (P43220 24-463): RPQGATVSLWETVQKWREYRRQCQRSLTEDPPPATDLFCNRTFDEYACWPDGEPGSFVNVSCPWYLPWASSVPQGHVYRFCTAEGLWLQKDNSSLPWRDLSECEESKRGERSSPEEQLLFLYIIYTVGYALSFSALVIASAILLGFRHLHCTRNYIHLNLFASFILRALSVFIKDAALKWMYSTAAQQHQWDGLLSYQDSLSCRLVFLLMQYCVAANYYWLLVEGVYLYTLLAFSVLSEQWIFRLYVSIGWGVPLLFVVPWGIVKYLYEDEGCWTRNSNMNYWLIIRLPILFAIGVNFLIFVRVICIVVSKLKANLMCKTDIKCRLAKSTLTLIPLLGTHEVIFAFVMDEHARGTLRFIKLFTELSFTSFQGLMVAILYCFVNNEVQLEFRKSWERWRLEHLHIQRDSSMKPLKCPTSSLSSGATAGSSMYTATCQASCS

Work on CC[C@H](C)[C@H](NC(=O)[C@H](CC(C)C)NC(=O)[C@H](Cc1c[nH]c2ccccc12)NC(=O)[C@H](CCC(=O)O)NC(=O)[C@@H](NC(=O)[C@H](Cc1ccccc1)NC(=O)[C@H](C)NC(=O)C(C)(C)NC(=O)[C@H](CCC(N)=O)NC(=O)[C@H](C)NC(=O)[C@H](CCC(N)=O)NC(=O)[C@H](CCC(N)=O)NC(=O)[C@H](CCC(=O)O)NC(=O)[C@H](CC(C)C)NC(=O)C(C)(C)NC(=O)[C@@H](NC(=O)[C@H](CO)NC(=O)[C@H](Cc1ccc(O)cc1)NC(=O)[C@H](CC(=O)O)NC(=O)[C@H](CO)NC(=O)[C@@H](NC(=O)[C@H](Cc1ccccc1)NC(=O)[C@@H](NC(=O)CNC(=O)[C@H](CCC(=O)O)NC(=O)C(C)(C)NC(=O)[C@@H](N)Cc1ccc(O)cc1)[C@@H](C)O)[C@@H](C)O)[C@@H](C)CC)C(C)C)C(=O)N[C@@H](CCCCNC(=O)[C@@H](N)CCCCNC(=O)CC[C@H](NC(=O)[C@H](CCC(=O)O)NC(=O)CC[C@H](NC(=O)CC[C@H](NC(=O)CC[C@H](NC(=O)CC[C@H](NC(=O)CCCCCCCCCCCCCCCCCCC(=O)O)C(=O)O)C(=O)O)C(=O)O)C(=O)O)C(=O)O)C(=O)NCC(=O)NCC(=O)N1CCC[C@H]1C(=O)N[C@@H](CO)C(=O)N[C@@H](CO)C(=O)NCC(=O)N[C@@H](C)C(=O)N[C@@H](CO)C(=O)N[C@@H](CC(C)C)C(=O)N[C@@H](CCCNC(=N)N)C(=O)N[C@@H](Cc1c[nH]cn1)C(=O)N[C@@H](Cc1ccc(O)cc1)C(=O)N[C@@H](Cc1ccc(O)cc1)C(=O)N[C@@H](CC(N)=O)C(=O)N[C@@H](Cc1c[nH]c2ccccc12)C(=O)N[C@@H](CC(C)C)C(=O)N[C@H](C(=O)N[C@@H](CCCNC(=N)N)C(=O)N[C@@H](CCC(N)=O)C(=O)N[C@@H](CCCNC(=N)N)C(=O)N[C@@H](Cc1ccc(O)cc1)C(N)=O)[C@@H](C)O [Compound 124, Y-Aib-E-G-T-F-T-S-D-Y-S-I-Aib-L-E-Q-Q-A-Q-Aib-A-F-V-E-W-L-I-K(1,3)-GGPSSGASLRHYYNWLTRQRY-NH2.C20DA-gGlu-gGlu-gGlu-gGlu-Glu-gGlu-eLys(1,2)] yielded an EC50 (hGIPR; [1]) of 0.26 nM, an EC50 (hGIPR; [2]) of 0.89 nM and an EC50 (hGLP1R) of 0.11 nM. The EC50 (hNPY2R; [3]) was 16.2 nM and the EC50 (hNPY2R; [4]) was 39.9 nM.
“Y[Aib]EGTFTSDYSI[Aib]LEKQAQ[Aib]AFVEWLIK([Glu-γGlu-γGlu-γGlu-γGlu-γGlu-C18 diacid])GGPSEGASLRHYYNWLTRQRY-NH2 [Compound 296, Y-Aib-E-G-T-F-T-S-D-Y-S-I-Aib-L-E-K-Q-A-Q-Aib-A-F-V-E-W-L-I-K(1,3)-GGPSEGASLRHYYNWLTRQRY-NH2.C18DA-gGlu-gGlu-gGlu-gGlu-gGlu-Glu(1,2)]” gave an EC50 (hGIPR; [1]) of 1.39 nM, an EC50 (hGIPR; [2]) of 1.11 nM and an EC50 (hGLP1R) of 0.11 nM. The EC50 (hNPY2R; [3]) was 14.1 nM.
Compound “Y[Aib]EGTFTSDYSI[Aib]LEKQAQ[Aib]AFVQWLIK([εLys-Glu-γGlu-γGlu-γGlu-γGlu-C20 diacid])GGPEYYASLRHYYNWLTRQRY-NH2 [Compound 23, Y-Aib-E-G-T-F-T-S-D-Y-S-I-Aib-L-E-K-Q-A-Q-Aib-A-F-V-Q-W-L-I-K(1,3)-GGPEYYASLRHYYNWLTRQRY-NH2.C20DA-gGlu-gGlu-gGlu-gGlu-Glu-eLys(1,2)]” has an EC50 (hGIPR; [1]) of 0.56 nM, an EC50 (hGLP1R) of 0.47 nM and an EC50 (hNPY2R; [3]) of 10.1 nM.
Compound “Y[Aib]EGTFTSDYSI[Aib]LEKQAQ[Aib]EFVQWLIK([εLys-γGlu-Glu-γGlu-γGlu-γGlu-γGlu-γGlu-C20 diacid])GGPSEGASLRHYYNWLTRQRY-NH2 [Compound 207, Y-Aib-E-G-T-F-T-S-D-Y-S-I-Aib-L-E-K-Q-A-Q-Aib-E-F-V-Q-W-L-I-K(1,3)-GGPSEGASLRHYYNWLTRQRY-NH2.C20DA-gGlu-gGlu-gGlu-gGlu-gGlu-Glu-gGlu-eLys(1,2)]” has an EC50 (hGIPR; [1]) of 0.63 nM, an EC50 (hGIPR; [2]) of 1.66 nM and an EC50 (hGLP1R) of 0.36 nM. For the same compound, the EC50 (hNPY2R; [3]) was 11 nM and the EC50 (hNPY2R; [4]) was 50.3 nM.
In the case of CC[C@H](C)[C@H](NC(=O)[C@H](CC(C)C)NC(=O)[C@H](Cc1c[nH]c2ccccc12)NC(=O)[C@H](CCC(=O)O)NC(=O)[C@@H](NC(=O)[C@H](Cc1ccccc1)NC(=O)[C@H](C)NC(=O)C(C)(C)NC(=O)[C@H](CCC(N)=O)NC(=O)[C@H](C)NC(=O)[C@H](CCC(N)=O)NC(=O)[C@H](CCCCN)NC(=O)[C@H](CCC(=O)O)NC(=O)[C@H](CC(C)C)NC(=O)[C@H](CC(C)C)NC(=O)[C@@H](NC(=O)[C@H](CO)NC(=O)[C@H](Cc1ccc(O)cc1)NC(=O)[C@H](CC(=O)O)NC(=O)[C@H](CO)NC(=O)[C@@H](NC(=O)[C@H](Cc1ccccc1)NC(=O)[C@@H](NC(=O)CNC(=O)[C@H](CCC(=O)O)NC(=O)C(C)(C)NC(=O)[C@@H](N)Cc1ccc(O)cc1)[C@@H](C)O)[C@@H](C)O)[C@@H](C)CC)C(C)C)C(=O)N[C@@H](CCCCNC(=O)[C@@H](N)CCCCNC(=O)CC[C@H](NC(=O)CC[C@H](NC(=O)CC[C@H](NC(=O)CC[C@H](NC(=O)[C@H](CCC(=O)O)NC(=O)CC[C@H](NC(=O)CCCCCCCCCCCCCCCCCCC(=O)O)C(=O)O)C(=O)O)C(=O)O)C(=O)O)C(=O)O)C(=O)NCC(=O)NCC(=O)N1CCC[C@H]1C(=O)N[C@@H](CO)C(=O)N[C@@H](CO)C(=O)NCC(=O)N[C@@H](C)C(=O)N[C@@H](CO)C(=O)N[C@@H](CC(C)C)C(=O)N[C@@H](CCCNC(=N)N)C(=O)N[C@@H](Cc1c[nH]cn1)C(=O)N[C@@H](Cc1ccc(O)cc1)C(=O)N[C@@H](Cc1ccc(O)cc1)C(=O)N[C@@H](CC(N)=O)C(=O)N[C@@H](Cc1c[nH]c2ccccc12)C(=O)N[C@@H](CC(C)C)C(=O)N[C@H](C(=O)N[C@@H](CCCNC(=N)N)C(=O)N[C@@H](CCC(N)=O)C(=O)N[C@@H](CCCNC(=N)N)C(=O)N[C@@H](Cc1ccc(O)cc1)C(N)=O)[C@@H](C)O [Compound 104, Y-Aib-E-G-T-F-T-S-D-Y-S-I-L-L-E-K-Q-A-Q-Aib-A-F-V-E-W-L-I-K(1,3)-GGPSSGASLRHYYNWLTRQRY-NH2.C20DA-gGlu-Glu-gGlu-gGlu-gGlu-gGlu-eLys(1,2)], the EC50 (hGIPR; [1]) is reported as 0.06 nM, the EC50 (hGLP1R) is reported as 0.09 nM and the EC50 (hNPY2R; [3]) is reported as 13.4 nM. The EC50 (hNPY2R; [4]) was 50.7 nM.
